Data from PubChem BioAssay AID504637 (National Center for Advancing Translational Sciences (NCATS), 2011).
Screen size: about 1,100 compounds; about 430 (39%) were called active. The set was probably picked from earlier hits. Inconclusive means that the source gave no clear call. Such entries were picked first, then a sample of the others. Calls follow the shape of the dose curve; as a rule, active = well fitted inhibition curve with a large enough effect; inconclusive = small, poorly fitted or top-dose-only effect, or effect the other way; inactive = flat fitted curve, though single readings scatter. Potencies beside an inconclusive call are fits to weak or partial responses and may not hold up.

The molecules below were run against ATP-dependent 6-phosphofructokinase (Trypanosoma brucei brucei) (UniProt O15648) (assay: Inhibitors of T. brucei phosphofructokinase: Hit Validation). Conditions: purified T. brucei PFK, ADP-Glo luminescence, 45 min; series mostly up to 57.5 µM; activity change, negative = inhibition: at the top concentration.
Chain of UniProt O15648 (O15648 whole entry, looked up): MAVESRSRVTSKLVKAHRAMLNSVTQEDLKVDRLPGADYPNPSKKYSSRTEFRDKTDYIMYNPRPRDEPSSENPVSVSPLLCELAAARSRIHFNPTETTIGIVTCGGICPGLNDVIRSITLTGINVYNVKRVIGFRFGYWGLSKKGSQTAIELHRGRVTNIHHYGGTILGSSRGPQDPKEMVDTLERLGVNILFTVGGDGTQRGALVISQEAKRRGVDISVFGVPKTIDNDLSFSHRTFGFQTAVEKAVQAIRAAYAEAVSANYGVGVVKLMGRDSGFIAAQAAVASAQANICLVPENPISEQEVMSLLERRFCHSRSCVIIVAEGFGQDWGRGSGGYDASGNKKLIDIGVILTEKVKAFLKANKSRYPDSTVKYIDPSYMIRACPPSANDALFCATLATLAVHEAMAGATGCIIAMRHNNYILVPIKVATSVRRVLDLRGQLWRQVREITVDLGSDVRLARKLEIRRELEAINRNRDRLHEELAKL
Also: nearly all actives have a fitted effect of over 60% in size.
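For activity change, negative = inhibition in this document: plate controls were full PFK enzyme control for no effect and no enzyme control for full effect.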
Potency is read from the fitted curve at half-maximal effect; tags tell the direction and shape of the fitted curve.

SMILES | Potency | activity change, negative = inhibition
CN1CCc2cc(O)c(O)cc2C(c2ccccc2)C1 (stereo not given) | inconclusive: 30.1 µM [inhibitor, single point] | –
CCOP(=O)(Nc1ccc2oc(=O)c3ccccc3c2c1)OCC | – | inactive: 20.5%
O=C(COc1ccc2ccccc2c1)NNC(=O)c1cccs1 | inconclusive: 3.01 µM [activator, full curve] | –
Cc1cc(O)c(-c2cc(O)c(C)cc2O)cc1O | active: 8.49 µM | –
O=C(COc1ccccc1[N+](=O)[O-])N/N=C/c1ccc(O)c([N+](=O)[O-])c1 | inconclusive: 15.1 µM [activator, partial curve, poor fit] | –
CC1C=CC(C)C(C(=O)O)C1C(=O)O (stereo not given) | inconclusive: 10.7 µM [inhibitor, partial curve] | –
COc1ccc(OC)c(NC(=O)COC(=O)c2cc3c(s2)CCC3)c1 | inconclusive: 3.38 µM [inhibitor, full curve] | –
CC(=O)Nc1ccc(S(=O)(=O)NC(CSc2ccc(C(=O)O)cc2[N+](=O)[O-])C(=O)O)cc1 (stereo not given) | inconclusive: 10.7 µM [activator, partial curve] | –
CC(=O)NC1=NN(C(C)=O)C(C)(c2ccccc2)S1 (stereo not given) | – | inactive: -0.85%
CCN(CC)c1ccc(/C=C2\C(=O)N(c3nnc(C)c(=O)[nH]3)N=C2C)cc1 | active: 13.5 µM | –
Cc1cc(C)c(NC(=S)NCC2CCN(C(C)c3ccccc3)C2)c(C)c1 (stereo not given) | active: 15.1 µM | –
Nc1ccn(Cc2cccc(Cl)c2)n1 | inconclusive: 30.1 µM [inhibitor, single point] | –
O=c1[nH]c2ccsc2c(=O)n1-c1ccc(F)c(Cl)c1 | – | inactive: 29.3%
CCOc1ccc(C(C)=O)cc1N1C(=O)C2C3C=CC(O3)C2C1=O (stereo not given) | inconclusive: 2.69 µM [activator, full curve] | –
COc1ccccc1NS(=O)(=O)c1cc(NC(=O)c2sccc2C)ccc1N1CCCC1 | active: 23.9 µM | –
O=C(COC(=O)Cc1ccc(Cl)c(Cl)c1)NCc1ccco1 | inconclusive: 30.1 µM [inhibitor, partial curve] | –
O=c1c2ccccc2nc2n1CCC2 | active: 16.9 µM | –
CC(=O)c1c(C)nc(-c2ccc(Cl)cc2)nc1N=CN(C)C | active: 12 µM | –
O=C(O)c1cccc(-n2cccc2/C=N/O)c1 | inconclusive: 23.9 µM [inhibitor, partial curve] | –
COc1cc(C)c(NC(=O)C(=S)NCCc2ccccc2)cc1C | inconclusive: 30.1 µM [inhibitor, partial curve] | –
COc1cccc(N2CC(C(=O)Nc3ccc(F)cc3)CC2=O)c1 (stereo not given) | – | inactive: -5.1%
Cc1cc(SCC(=O)NC(=O)NCc2ccco2)nc2c(C)cccc12 | inconclusive: 26.9 µM [inhibitor, single point] | –
Nc1ncccc1OCc1ccc(Cl)c(Cl)c1 | active: 16.9 µM | –
Cc1cc(NS(=O)(=O)c2ccc(NC(=O)Cc3ccc([N+](=O)[O-])cc3)cc2)nc(C)n1 | active: 6.01 µM | –
Cc1c(Cl)cnc(NC(=O)COC(=O)c2ccc3ncsc3c2)c1Cl | inconclusive: 10.7 µM [activator, partial curve] | –

SMILES | Potency | activity change, negative = inhibition
N#Cc1sc(NCc2ccccn2)nc1Cl | inconclusive: 33.8 µM [inhibitor, partial curve] | –
COc1ccccc1/C=C/C(=O)NCC(=O)N/N=C/c1ccccc1[N+](=O)[O-] | inconclusive: 13.5 µM [activator, single point] | –
CN(C)C=Nc1ccc(Cl)c(Cl)c1 | – | inactive: -7.91%
O=C(OCc1ccco1)c1ccc(S(=O)(=O)N2CCCCC2)cc1 | inconclusive: 37.9 µM [inhibitor, single point] | –
Fc1ccc(NC(=S)Nc2ccccc2OC(F)F)cc1Cl | – | inactive: -27%
CN1CCc2cccc3c2[C@@H]1Cc1ccc(O)c(O)c1-3 | active: 6.01 µM | –
O=C(COc1ccc(F)c(Cl)c1)c1ccc[nH]1 | inconclusive: 33.8 µM [inhibitor, single point] | –
CSc1ccc(C(c2c(C)[nH][nH]c2=O)c2c(C)[nH][nH]c2=O)cc1 | inconclusive: 33.8 µM [inhibitor, single point] | –
O=C(CSc1ccc(F)cc1)Nc1ccc2c(c1)C(=O)NC2=O | inconclusive: 33.8 µM [inhibitor, partial curve] | –
O=c1ccc2c(-c3ccccc3)c3ccc(O)cc3oc-2c1 | – | inactive: -10.4%
O=C1NC(=Nc2ccccc2)S/C1=C\C=C\c1ccco1 | inconclusive: 30.1 µM [inhibitor, partial curve, poor fit] | –
COc1cc(-c2cc(=O)c3c(O)c(OC)c(OC)c(O)c3o2)ccc1O | active: 9.53 µM | –
Cc1cc(NS(=O)(=O)c2ccc(NC(=S)NCc3ccccc3)cc2)no1 | inconclusive: 30.1 µM [inhibitor, single point] | –
Cc1cc(C)c(C)c(S(=O)(=O)N2CCC(C(=O)OCC(=O)N3c4ccccc4NC(=O)C3(C)C)CC2)c1C | inconclusive: 23.9 µM [inhibitor, single point] | –
S=c1[nH]nc(-c2cccnc2)n1/N=C/C=C/c1ccco1 | inconclusive: 15.1 µM [inhibitor, partial curve] | –
Fc1ccc(NC(=S)Nc2ccc(F)c(Cl)c2)cc1Cl | – | inactive: -29.9%
O=C(N/N=C\C=C\c1ccco1)C1COc2ccccc2O1 (stereo not given) | inconclusive: 30.1 µM [inhibitor, partial curve] | –
O=[N+]([O-])c1cn(Cc2ccc(Cl)cc2)cn1 | inconclusive: 23.9 µM [inhibitor, partial curve] | –
CC1=NN(CCC#N)C(=O)/C1=C/c1ccc(N(C)C)cc1 | active: 26.9 µM | –
CC(=O)Oc1ccc(CC(C(=O)O)N2C(=O)c3ccccc3C2=O)cc1 (stereo not given) | inconclusive: 23.9 µM [inhibitor, single point] | –
Cc1nc2ccc(NC3=NCCCCC3)cc2s1 | active: 6.75 µM | –
COc1ccc(C(=O)NCc2ccc(Cl)c(Cl)c2)cc1OC | active: 26.9 µM | –
COC(=O)\C(C(C)=O)=C(/C=C/C=C/C=C/N(C)C)N(C)C | inconclusive: 1.69 µM [inhibitor, full curve, poor fit] | –
CC(c1cccs1)N(Cc1ccco1)C(=O)Nc1ccc(Cl)c(Cl)c1 (stereo not given) | – | inactive: -2.4%
COc1ccc2o/c(=N/NC(=O)c3cccs3)c(C(N)=O)cc2c1 | inconclusive: 12 µM [activator, partial curve] | –

SMILES | Potency | activity change, negative = inhibition
O=C1CCC(C(=O)Nc2cccc(S(=O)(=O)Nc3ccccc3F)c2)=NN1 | active: 9.53 µM | –
COC(=O)c1ccc2c(c1)C(C)(C)C(/C=C/c1ccccc1O)=[N+]2C | inconclusive: 12 µM [inhibitor, partial curve] | –
COc1cc(Br)c(Br)cc1N | inconclusive: 26.9 µM [inhibitor, single point] | –
CC(C)N(CCC(=O)c1ccc2ccccc2c1)Cc1ccccc1 | inconclusive: 33.8 µM [inhibitor, partial curve] | –
Nc1ccccc1Sc1nc2ccccc2[nH]1 | inconclusive: 30.1 µM [inhibitor, single point] | –
Cc1c(Nc2cc(Cl)c3nonc3c2[N+](=O)[O-])c(=O)n(-c2ccccc2)n1C | inconclusive: 23.9 µM [inhibitor, single point] | –
CCN(CC)CCOC(=O)c1ccc(N/C=C(/C#N)c2nc(-c3ccc4c(c3)OCO4)cs2)cc1 | inconclusive: 4.26 µM [activator, full curve] | –
Cc1ccc(NC2c3ncccc3C(=O)N2Cc2cccs2)cc1C (stereo not given) | – | inactive: -19.6%
O=C(NCCc1c[nH]c2ccccc12)OCCSS(=O)(=O)O | inconclusive: 30.1 µM [inhibitor, single point] | –
O=C(Nc1ccc(Cl)c([N+](=O)[O-])c1)c1ccncc1 | inconclusive: 37.9 µM [inhibitor, single point] | –
Cc1cc(OC(F)F)ccc1NC(=O)Nc1ccc([N+](=O)[O-])cc1 | inconclusive: 30.1 µM [inhibitor, single point] | –
O=C(Cc1ccc(Cl)c(Cl)c1)NNC(=S)NCC1CCCO1 (stereo not given) | inconclusive: 33.8 µM [inhibitor, single point] | –
C#CCNc1ccc([N+](=O)[O-])cc1 | active: 26.9 µM | –
CS(=O)(=O)NNC(=O)C1Cc2c(ccc3ccccc23)O1 (stereo not given) | inconclusive: 13.5 µM [activator, partial curve] | –
O=C(Nc1ccc(S(=O)(=O)NC2=NCCCCC2)cc1)c1ccc(Cl)c([N+](=O)[O-])c1 | inconclusive: 33.8 µM [inhibitor, single point] | –
Cc1nc(N)nc(SCc2ccc([N+](=O)[O-])cc2)c1N | active: 19 µM | –
O=C(NNC(=O)c1ccncc1)Nc1ccc([N+](=O)[O-])cc1 | inconclusive: 30.1 µM [inhibitor, single point] | –
N#Cc1c(N)nc2c(c1N)CC(COc1ccccc1)O2 (stereo not given) | – | inactive: 15%
CC[n+]1c(C)sc2cc(C)ccc21 | – | inactive: -0.927%
Cc1nnc(Sc2cc(NCCO)c([N+](=O)[O-])c3nonc23)s1 | active: 1.51 µM | –
Cc1cc(NS(=O)(=O)c2ccc(NC(=O)COc3ccc(Br)cc3)cc2)nc(C)n1 | active: 23.9 µM | –
Cc1ccc(N/C=C(\C2OC(=O)c3ccccc32)[N+](=O)[O-])c(C)c1 (stereo not given) | – | inactive: 0%
Oc1ccc(C2CNCc3sccc32)cc1O (stereo not given) | inconclusive: 21.3 µM [inhibitor, partial curve] | –
CCC(=O)Nc1ccc(F)c(Cl)c1 | inconclusive: 37.9 µM [inhibitor, partial curve, poor fit] | –
COCc1cc(/C=N\NC(=O)Cc2ccc(Cl)cc2)ccc1OC | inconclusive: 21.3 µM [inhibitor, partial curve] | –
